According to the supplement of paper PMC3334620:
In all, about 33,000 sequences were measured (“E-score (-0.5 to 0.5)”: median about -0.012, highest 2% from about 0.27 on). Some of the results follow.

What follows are sequences tested against T1, Vhr1 (UniProt P40522) (assay: PBM E-score (8-mer binding enrichment) (E-score (-0.5 to 0.5)); higher = stronger / more preferred TF binding; most listed sequences are background and not binding sites). Details: protein concentration: 200 nM; construct: GST-full length.
T1 sequence: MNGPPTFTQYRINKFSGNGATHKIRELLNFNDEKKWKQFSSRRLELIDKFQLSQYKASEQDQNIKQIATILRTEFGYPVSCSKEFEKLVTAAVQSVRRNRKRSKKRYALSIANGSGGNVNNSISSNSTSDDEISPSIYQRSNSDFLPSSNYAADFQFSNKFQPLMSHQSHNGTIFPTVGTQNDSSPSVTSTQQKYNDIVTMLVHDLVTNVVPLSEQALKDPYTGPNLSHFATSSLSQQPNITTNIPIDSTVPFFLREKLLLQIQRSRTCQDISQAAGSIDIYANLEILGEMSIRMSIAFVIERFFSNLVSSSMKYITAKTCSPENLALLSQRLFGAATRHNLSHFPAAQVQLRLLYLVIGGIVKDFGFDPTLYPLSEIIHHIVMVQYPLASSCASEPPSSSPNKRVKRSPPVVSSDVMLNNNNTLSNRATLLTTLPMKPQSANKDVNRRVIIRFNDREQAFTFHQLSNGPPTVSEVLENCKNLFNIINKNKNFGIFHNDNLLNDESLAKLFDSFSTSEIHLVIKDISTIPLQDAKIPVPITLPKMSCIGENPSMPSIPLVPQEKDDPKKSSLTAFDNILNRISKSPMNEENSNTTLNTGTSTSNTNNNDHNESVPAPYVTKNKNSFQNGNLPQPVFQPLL
Procedure: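 Universal 'all 10-mer' protein binding microarrays (Agilent AMADID 015681) probed with GST-tagged S. cerevisiae TFs (full-length or DBD) made by in vitro transcription/translation (PURExpress), about 100-200 nM. Bound TF was detected with fluorescent anti-GST. Each ungapped 8-mer (which stands for itself and its reverse complement) is scored by the PBM enrichment score (E-score), a modified Wilcoxon-Mann-Whitney statistic from -0.5 to +0.5, computed with the Universal PBM Analysis Suite. Scale: above 0.35 generally sequence-specific binding.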

Sequence | PBM E-score
GGTTAAAA | -0.139
CTACTACC | 0.0262
TGCCTTAA | -0.296
ACACGTAA | -0.144
CACACTGA | 0.0767
ATATAGGG | 0.107
GTCGCCCA | 0.0863
GGGAGACC | -0.232
GTGATGTA | 0.108
AACCCGCC | 0.136
CTCACGCC | 0.239
GTACAGAA | -0.0922
CCGTATCG | -0.054
CCGCGCAG | -0.0663
GGGCCACA | 0.0234
CCGTCGTC | -0.0927
ATTCGCGC | 0.243
CAGACGAG | -0.104
CGCTTAAC | -0.225
AGAAGCCC | -0.0955
CATAGGTC | 0.118
GGGCCCCA | -0.156
CAAGTACG | -0.166
AGTCCTCA | 0.0606
ATCCTGCA | 0.172

Sequence | PBM E-score
CGCAGACG | 0.0107
GACCGATC | -0.0904
ATTGAATG | 0.04
AAGGTCCA | -0.0882
GTGTTGAA | -0.0521
AACCTATC | -0.103
AAAGCTCT | -0.374
CTTGGCTC | -0.0425
AGCGGAGG | -0.142
GGCGTTAC | -0.119
ACCTTAGG | -0.166
ACGTAGGC | -0.183
AGATACCG | -0.0775
CTTACATA | -0.0304
CAATCGTC | 0.144
ACGAAGGG | 0.0329
CCGTCACA | -0.0936
TACTTTCA | -0.147
CCCTACTC | -0.067
AATCTACA | 0.0335
AGTGACAC | 0.215
CCCCCTTA | -0.195
AGCTTGAC | 0.0387
GAATCACA | 0.341
CGCATAGA | 0.0797

Sequence | PBM E-score
AAACGCTT | -0.245
TCTTAACA | -0.0919
CACTTGAA | -0.042
AGGAGCAT | -0.0306
AGTTAACC | 0.053
CGAGACGC | -0.0341
AATACATT | 0.0691
CGTGACTA | 0.419
CTAATCGA | 0.151
AATACCGA | 0.00846
ACTCTGAA | 0.043
AGATAAGA | 0.00412
CTTACAGA | -0.204
AGCGCAGC | -0.164
CAATGCAG | -0.00246
CCCGATGA | 0.273
TATGGCGA | 0.014
ATAGAGAA | -0.123
CAGTCAAA | -0.0678
ACAGGCAC | 0.0123
CCAAATGC | -0.119
AGTACTAT | 0.149
ATTACTCA | 0.29
ACTATGCC | 0.0937
CCCTGCGG | 0.00618

Sequence | PBM E-score
AACACTCT | 0.00708
ACAATGTC | 0.167
AAAAGTGG | -0.0645
ATCCGCCG | 0.172
AGTTGTTA | -0.0902
AAGCGTGT | -0.137
AGCCAGTG | 0.00862
TCGGGTCA | 0.182
CGCTATAA | -0.11
ACATTGCG | 0.0694
AACACCCA | 0.0787
GCGCTGTA | -0.0763
GCACGAAA | 0.0619
ATTCGTGA | 0.149
GAGTGCCA | -0.251
ATAGAGAT | -0.0731
GCAGCCGA | 0.0559
ATCATATC | 0.3
GACAATGA | -0.0528
GCCAAGTA | -0.161
CGCTACTA | 0.0896
TGCTGACA | 0.0211
CGCAAAAA | -0.0621
CAAGAATC | 0.179
ATCAACGA | -0.0479

Sequence | PBM E-score
CAGGACAC | 0.135
TATAATCA | 0.2
AACAACCG | 0.0157
AAATATAT | 0.22
CGGGTTCA | 0.0938
CATATAAC | 0.163
ACCCCACT | 0.0662
ACAGTATG | 0.277
AGTCCACA | 0.0206
CACTTCCA | -0.089
AGCGCCTC | -0.0748
AAAGCAAC | -0.066
AACAGTCG | -0.0436
GGGGATAA | 0.0234
CCCTTCGC | -0.0743
ACTCCGGG | 0.25
TCTAGCCA | 0.0254
AAATGTAT | 0.116
CAAGCCGA | 0.129
GGTCTTCA | -0.235
AACATTAT | 0.086
CAGATGTA | -0.0675
AAGCACAG | 0.0788
CACGGTTA | 0.0597
CCATAGAA | 0.0209

Sequence | PBM E-score
CAAATTCC | -0.0834
CAAAGGGA | -0.0236
TGCGTTAA | -0.0218
ACGGCGGA | 0.142
CCGGGCCC | -0.0522
AGTACCAA | 0.208
AGCACGTC | -0.124
ATACACAC | 0.142
AGTCGTGG | 0.227
GAACAAAC | 0.125
AACATCAC | 0.0175
GGAATCGA | -0.0746
GTATCACA | 0.202
TTACAGAA | -0.218
GTAGAAAA | -0.227
TGATCTAA | -0.0535
AGGCTTCC | -0.119
CCCGTGAA | -0.0611
TTGGTAAA | -0.12
GAATCGCC | 0.201
CGGATGTA | -0.142
AGGAGGCA | -0.227
CTTGACTC | 0.262
GCTGTGGA | 0.0567
ACAGACGG | -0.0633

Sequence | PBM E-score
AAATGGCC | -0.311
ACTTACGG | -0.179
ATGAGGCC | -0.318
AGCCGATA | -0.0477
GGTCTGAA | 0.0326
ACTAAGCA | -0.0575
CCTGCTGC | 0.0109
GAAGTGTC | -0.095
ACTGAGTG | 0.0665
AGGTTTCA | 0.0277
TACTATCA | 0.235
ACCCGCGT | 0.00191
GTTTCGCA | -0.137
CATATACC | 0.0435
GGGGCAGA | -0.126
ATCAGAGA | 0.0517
CATTCTAA | -0.066
AATCACTC | 0.115
ACGCACCA | 0.0769
CTGTTTGC | 0.0939
CTACATGA | 0.227
CGATTGAA | -0.0599
